Measurements reported in patent US20250041437A1, “HUMANIZED MUC1 ANTIBODY AND ANTIBODY DRUG CONJUGATE” (Sun Pharma Advanced Research Company Limited, priority 2023, published 2025).

Molecular target: T1, recombinant human MUC1-SEA (MUC1 antigen, Acrobiosystems, Cat: MU1-H52H9) (human), P15941
T1 chain: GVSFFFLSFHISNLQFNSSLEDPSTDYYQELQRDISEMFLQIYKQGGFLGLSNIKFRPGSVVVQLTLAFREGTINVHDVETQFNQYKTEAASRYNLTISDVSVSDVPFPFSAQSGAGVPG
Experiment: SPR, single cycle kinetics; MUC1 antigen captured on anti-His CM5 chip

B1: HM5LM4-ADC (humanized IgG anti-MUC1-SEA mAb conjugated to MC-Val-Cit-PABC-MMAE) (antibody)
heavy: EIQLVQSGAEVKKPGSSVKVSCKVTGHSITRGSSWHWMRQAPGQGLEWIGYIHYGGGTSYNPSLKSRITITRDTSTNTFYMELSSLRSEDTAFYFCARYSYDITYRWFFDVWGQGTLVTVSSASTKGPSVFPLAPSSKSTSGGTAALGCLVKDYFPEPVTVSWNSGALTSGVHTFPAVLQSSGLYSLSSVVTVPSSSLGTQTYICNVNHKPSNTKVDKRV[gap - human IgG1 Fc]
light: DIQMTQSPSTLSASVGDRVTITCRASQNIGTSIHWYQQKPGKAPKLLIKYASESISGVPSRFSGSGSGTEFTLTISSLQPDDFATYYCQQNNNWPLTFGQGTKVEIKRTVAAPSVFIFPPSDEQLKSGTASVVCLLNNFYPREAKVQWKVDNALQSGNSQESVTEQDSKDSTYSLSSTLTLSKADYEKHKVYACEVTHQGLSSPVTKSFNRGEC
modifications: not checked
Kd: 0.0406 nM
